# Test results: the supplement of paper PMC11417369
# ± gives the standard deviation of the averaged measurements. This is one part of the list.
# Test system: PfAP2-EXP AP2 domain (GST-tagged)
# Test: gcPBM binding intensity (ln(normalized median fluorescence intensity)); higher = stronger DNA binding
# In short: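 Binding of GST-tagged P. falciparum DNA-binding domains, expressed in E. coli and used at about 25 μg on average, was carried out for 1 h in 1× PBS containing 1% milk, 0.2 mg/ml BSA, 0.5% salmon testes DNA and 0.03% Triton X-100. The target was an Agilent 4 × 180k array of primer-extended double-stranded 36-bp intergenic genomic probes plus negative controls, read with Alexa488 anti-GST antibody at 488 nm. Binding intensity is the highest Masliner-normalised natural-log median intensity across replicate spots of either probe orientation.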
row,Sequence,gcPBM binding intensity (ln)
1,TTTTTTTTATCAAATTGTACATATACAAAGGTGATC [XGTACX_site8054],8.48 ± 0.66
2,ATTTTATTTTTTAATAGTACTCATTTTTTATGTGAA [XGTACX_site5494],8.55 ± 0.39
3,TATATATATATAAAGGTGCATATCTTTACGTATGTC [GTGCAC_site9665],9.99 ± 0.11
4,ATATATATATATGATACATGCATATATTTTTTCTTC [TGCATGCA_site216],9.99 ± 0.13
5,ATATATATATATATATGTACTTATTTATTTTATATA [XGTACX_site8810],10.2 ± 0.24
6,AACACCAAACAAAGGTGTACATATAGGAAAAAATCT [XGTACX_site1006],8.7 ± 0.47
7,TATCACATATTATGATGTACAAAGATTCTGACTAAT [XGTACX_site2770],8.53 ± 0.56
8,TACACGCAGAAACACACACACACACCCATATATATA [CACACA_site637],8.74 ± 0.28
9,TAGATATGTCTAAAAAGTACTTTCTATAACAATTCT [XGTACX_site6678],8.27 ± 0.42
10,TCATATTATTATATATGTACATACCAATATATTATA [XGTACX_site2988],8.47 ± 0.33
11,TTTCCTTATAAAAATACACACAAACTTTCATTAAAA [CACACA_site5953],8.29 ± 0.45
12,AGAGGGGAAAACATGATGCACTAGTATAACCAAGAA,9.22 ± 0.34
13,ACTCTCTTATATTAAACACACATATATATATGTATA [CACACA_site2703],8.8 ± 0.36
14,TCAAACAAAAAAGAAACACACACTAATTAAATTTTC [CACACA_site1101],8.47 ± 0.49
15,AATAATTTGAAGGTGATAGTATTACATGGGAAATCA [CACACA_negctrl_site301],8.65 ± 0.47
16,AAATCGAACAAATTATGTACTAAAAAAAAAATTTAT [XGTACX_site6399],8.39 ± 0.4
17,GTACATATAAATATTACACACATTTTCATTTTTAAC [CACACA_site1986],8.62 ± 0.52
18,TTATATGCATCCAAAAAGGAATGTTTTTAGAGAATC [CACACA_negctrl_site1062],8.3 ± 0.35
19,ATCTTTCGAACATGTACACACAGAAAAAAAAAAAAA [CACACA_site5393],8.56 ± 0.4
20,TAAAAAGTATATGGTCGTACACTTTTGATTAATACA [XGTACX_site7804],8.36 ± 0.33
21,TGTATAGGTACAATAATTATAGAGTAATTGACATTA [GTGCAC_negctrl_site183],8.37 ± 0.52
22,GTGTAGGCAAAAAGTTGTACGCCTAAAATCTATATA [XGTACX_site8912],8.73 ± 0.43

row,Sequence,gcPBM binding intensity (ln)
1,TTATTTTTTTCAACAAGTACTAATACAAAATAAAAC [XGTACX_site6460],8.68 ± 0.3
2,TTGTATTATTAAATTATAAAACCTATAATTATGGAT [GTGCAC_negctrl_site340],8.16 ± 0.47
3,GATTAAATCGATAATACACACTAAATGTAAAACATT [CACACA_site4248],8.43 ± 0.42
4,TGATAACTAAATACATGTACAAATTAAAAAGAAAAA [XGTACX_site3080],8.8 ± 0.44
5,TAATGATTATATGACTGTACATTTGTAGGTATAATT [XGTACX_site3373],8.52 ± 0.32
6,GCAAAATAAAGAAGCACACAAAAATGAAATATATAT [CACACA_site3651],8.85 ± 0.53
7,TTTAATTAATAATAATATAAATTGTTCTTTTTTTTT [GTGCAC_negctrl_site176],7.88 ± 0.4
8,CATATTTATAAATATAAACACACAACATTATATGCA [CACACA_site9065],8.68 ± 0.42
9,ATTTATATATATCATACACACTAATATGTATATTAT [CACACA_site5816],8.47 ± 0.43
10,AAAAAAAATACATACATACACACATATATATATATA [CACACA_site912],9.98 ± 0.38
11,TCTTGGTATATTCAATATATGATTTATATAATTCAA [CACACA_negctrl_site818],8.38 ± 0.35
12,ACTAGTAAATTTATATGTACATATATATATATATAG [XGTACX_site2502],8.68 ± 0.24
13,TATACGTAATAATATGCACACAAATAAACTTTATAA [CACACA_site9166],8.68 ± 0.32
14,ATATATAATATAATATGTACATATAATCAATCCTGT [XGTACX_site8694],8.48 ± 0.28
15,ATTTAGTATTCGAAACGTACACATATATATATATAT [XGTACX_site3910],10.2 ± 0.4
16,ATATTTTTTTTCTTCACACACATGAGTTATAAATAA [CACACA_site7498],8.82 ± 0.37
17,AATGAAACAATACCCAGTAAAAAAAAAAAATAAATA [TGCATGCA_negctrl_site205],8.34 ± 0.83
18,TGTAATCTGGAGAAGAGTACACAGTATCTGGTAGCT [XGTACX_site4935],8.43 ± 0.34
19,GGACGTATTAAAAGGCGTACACTAAATATTTTATGT [XGTACX_site146],8.52 ± 0.28
20,TAATATTTATATAATTGTACTTTGTTTGTAAATCCA [XGTACX_site7292],8.2 ± 0.53
21,TATTTATATAATCCTATAATATTACTACTATCTTTA [GTGCAC_negctrl_site342],8.29 ± 0.4
22,AAGATAATTACGCACACACACACACGCCCACAACTA [CACACA_site7255],8.85 ± 0.33
